Experimental data reported in PubChem BioAssay AID1458 (National Center for Advancing Translational Sciences (NCATS), 2008).
The campaign covered roughly 210,000 compounds. About 5,900 (2.8%) were called active. Inconclusive results, whose numbers are uncertain, are shown with a selection of clear calls. The call rests on the fitted dose curve; in most records, active means well fitted activation curve with a large enough effect; inconclusive means small, poorly fitted or top-dose-only effect; inactive means no such curve, though single readings can be large or run the other way. A potency beside an inconclusive call is a rough fit, not a confirmed value.

Experiment: qHTS Assay for Enhancers of SMN2 Splice Variant Expression; further: nearly all actives have a fitted effect of over 55% in size; on activity change, positive = activation: % of control where 0% means no effect
Conditions: HEK293 SMN2-luciferase splicing reporter, luminescence, 30-36 h; activity change, positive = activation: at 46.1 µM (top of the series)
How it was run: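 HEK293 cells carry an SMN2 […]–luciferase reporter in which exon 7 inclusion puts luciferase in frame. Cells were plated 10-12 h before compound addition, then incubated 30-36 h at 37C. ONE-Glo luminescence was read; sodium butyrate at 4.5 mM final served as control.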
Potency means the concentration at half of the fitted maximal effect; tags describe the fitted curve by direction and shape.

**Q.** Which Potency does the source give for `Cc1cc(O)c(C(=O)Cc2csc(C)n2)c(O)c1` here?
**A.** inconclusive: 8.91 µM [activator, partial curve]

**Q.** With `O=C(Nc1ccc2c(c1)oc1ccccc12)c1ccc(Br)o1` as the molecule, how does the activity change, positive = activation read?
**A.** inconclusive: 39.2% [activator]

**Q.** For `O=C(O)CSc1nnc(Cc2ccccc2)n1Cc1ccccc1`, which Potency is on record?
**A.** inconclusive: 0.1 µM [activator, full curve]

**Q.** With `CCC(C(=O)NCc1ccc(OC)cc1)n1nc(C)n2c(cc3occc32)c1=O` (centres undefined) as the molecule, how does the Potency read?
**A.** inconclusive: 0.0708 µM [activator, full curve, poor fit]

**Q.** For `O=C(c1cccs1)N(C(=O)c1cccs1)c1ccc(Br)cn1`, which Potency is on record?
**A.** inconclusive: 14.1 µM [activator, partial curve, poor fit]

**Q.** For `COC(=O)c1nn(-c2ccc3c(c2)CCN3C(C)=O)cc1O`, which Potency is on record?
**A.** inconclusive: 5.62 µM [activator, single point]

**Q.** With `O=C1CC(c2ccccc2)Sc2nc3ccccc3n21` (centres undefined) as the molecule, how does the Potency read?
**A.** inconclusive: 31.6 µM [activator, single point]

**Q.** Which Potency does the source give for `O=C(Oc1ccc(-c2nnco2)cc1)N1CCOCC1` here?
**A.** inconclusive: 35.5 µM [activator, single point]

**Q.** Which Potency does the source give for `O=C1c2ccccc2NC(c2cnc3ccccc3n2)N1O` (centres undefined) here?
**A.** active: 11.2 µM

**Q.** Which Potency does the source give for `COc1ccc(/C(N)=N/OC(=O)c2ccc3c(c2)OCO3)cc1OC` here?
**A.** inconclusive: 25.1 µM [activator, single point]

**Q.** Which Potency does the source give for `O=C(NC1CCCCC1)C(c1cccnc1)N(C(=O)c1csnn1)C1CCCC1` (centres undefined) here?
**A.** inconclusive: 15.8 µM [activator, single point]

**Q.** Which Potency does the source give for `Cc1cccc(OCc2nnc(SCc3nc4ccccc4c(=O)[nH]3)o2)c1` here?
**A.** inconclusive: 14.1 µM [activator, partial curve, poor fit]

**Q.** Which Potency does the source give for `N#Cc1cc2ccccc2nc1SCc1ccccn1` here?
**A.** active: 11.2 µM

**Q.** With `Cc1cccc(-c2cnn(-c3cccc([N+](=O)[O-])c3)c2N)c1` as the molecule, how does the activity change, positive = activation read?
**A.** inconclusive: 43.5% [activator]

**Q.** Which Potency does the source give for `O=C(NC1=NCCS1)c1ccc(Cl)c(S(=O)(=O)N2CCOCC2)c1` here?
**A.** inconclusive: 12.6 µM [activator, partial curve, poor fit]

**Q.** With `Cc1cc(NC(=O)CSc2nc(-c3ccco3)cc(C(F)(F)F)n2)n(-c2ccccc2)n1` as the molecule, how does the Potency read?
**A.** inconclusive: 0.501 µM [activator, single point]

**Q.** With `O=C(NCc1ccccc1Cl)c1cc2c(s1)-c1ccc(Cl)cc1SC2` as the molecule, how does the Potency read?
**A.** inactive

**Q.** Which Potency does the source give for `Cc1ccc(-c2cn3c(n2)SCC3)cc1` here?
**A.** active: 11.2 µM

**Q.** With `Cc1cc(C)c(C(=O)CN2C(=O)NC3(CCCCCC3)C2=O)cc1C` as the molecule, how does the Potency read?
**A.** inconclusive: 14.1 µM [activator, single point]

**Q.** For `COc1ccc(-c2cccc(C(=O)NCC(=O)O)c2)cc1`, which Potency is on record?
**A.** inconclusive: 0.0251 µM [activator, full curve, poor fit]

**Q.** With `COc1c(Cl)cc(Cl)cc1CNCc1ccccc1` as the molecule, how does the Potency read?
**A.** inconclusive: 22.4 µM [activator, partial curve, poor fit]

**Q.** With `Fc1ccc(-c2nnsc2Sc2ccccn2)cc1` as the molecule, how does the Potency read?
**A.** inactive

**Q.** Which Potency does the source give for `Cc1nc([N+](=O)[O-])c(C(=O)OCc2ccccc2C#N)n1C` here?
**A.** inconclusive: 35.5 µM [activator, single point]

**Q.** Which Potency does the source give for `Cc1c(NC(=O)/C(C#N)=C\c2cccs2)c(=O)n(-c2ccccc2)n1C` here?
**A.** inactive

**Q.** Which Potency does the source give for `CCOC(=O)c1cc(CC)sc1NC(=O)CCC(=O)O` here?
**A.** inconclusive: 0.224 µM [activator, full curve]

**Q.** Which Potency does the source give for `Cc1cc(OCCCCCNCCO)ccc1Cl` here?
**A.** inactive

**Q.** For `NCC1OC(OC2C(N)CC(N)[C@@H](O)[C@@H]2OC2O[C@H](CO)[C@@H](O[C@@H]3OC(CN)C(O)C(O)C3N)C2O)C(N)C(O)C1O` (some centres undefined), which Potency is on record?
**A.** inactive

**Q.** Which Potency does the source give for `CC(C)Cn1c(/C=N/Nc2nc3ccccc3[nH]2)nc2ccccc21` here?
**A.** inactive

**Q.** Which Potency does the source give for `COc1ccc(OC)c(CNC(=O)C(C)n2c(C)c3cnn(-c4ccccc4)c(=O)c3c2C)c1` (centres undefined) here?
**A.** inactive

**Q.** Which Potency does the source give for `CCOc1ccc(NC(=O)C2CCC(CNS(=O)(=O)c3ccc(Br)s3)CC2)cc1` (centres undefined) here?
**A.** inactive

**Q.** For `COc1ccccc1N1CCN(C(=O)c2cccc3c(=O)c(C)c(-c4ccccc4)oc23)CC1`, which Potency is on record?
**A.** inactive

**Q.** Which Potency does the source give for `CCC(C)NC(=O)Cn1cnc2sc(C)cc2c1=O` (centres undefined) here?
**A.** inconclusive: 0.282 µM [activator, full curve, poor fit]

**Q.** With `C/C(=N\NC(=O)Cn1ccc(C(F)(F)F)n1)c1ccc2c(c1)OCO2` as the molecule, how does the Potency read?
**A.** inactive

**Q.** With `Cc1ccc2oc3nc(C)c(C(=O)O)cc3c(=O)c2c1` as the molecule, how does the Potency read?
**A.** active: 5.62 µM

**Q.** Which Potency does the source give for `CCN=c1scc(C)n1/N=C/c1ccsc1` here?
**A.** inconclusive: 14.1 µM [activator, partial curve, poor fit]

**Q.** Which Potency does the source give for `CCCCOC(=O)c1ccc(Nc2ncnc3nc[nH]c23)cc1` here?
**A.** inconclusive: 11.2 µM [activator, partial curve, poor fit]

**Q.** For `CN(C)C(=O)c1ccc(COc2ccccc2Br)o1`, which Potency is on record?
**A.** active: 8.91 µM

**Q.** Which Potency does the source give for `O=c1oc(-c2ccc(Br)o2)nc2ccccc12` here?
**A.** inconclusive: 11.2 µM [activator, partial curve]

**Q.** With `CCOC(=O)Cc1csc(N/C(=N/S(=O)(=O)c2ccc(Cl)cc2)c2ccccc2)n1` as the molecule, how does the Potency read?
**A.** inconclusive: 0.794 µM [activator, full curve]

**Q.** For `CC(=O)N1CCc2cc(S(=O)(=O)NC(C(=O)Nc3ccc(C)cc3C)C(C)C)ccc21` (centres undefined), which Potency is on record?
**A.** inactive

**Q.** For `COc1ccc(C(C)C(=O)c2ccc(O)cc2O)cc1` (centres undefined), which Potency is on record?
**A.** inactive

**Q.** With `Cc1ccc2nc(SCc3nc4c(cnn4-c4ccccc4)c(=O)[nH]3)[nH]c2c1` as the molecule, how does the Potency read?
**A.** inactive

**Q.** With `COc1ccccc1N1CCN(CC(=O)Nc2ccc(CN3CCCCC3)cc2)CC1` as the molecule, how does the Potency read?
**A.** inconclusive: 5.01 µM [activator, single point]

**Q.** For `O=C(NCCn1ccc2ccccc21)c1ccc(Cl)cc1`, which Potency is on record?
**A.** active: 12.6 µM

**Q.** With `CCCC(C)NC(=O)c1cccc(Oc2ccccc2)c1` (centres undefined) as the molecule, how does the Potency read?
**A.** inconclusive: 35.5 µM [activator, single point]

**Q.** For `CNc1ncc(C(=O)c2ccc(Cl)c(Cl)c2)s1`, which Potency is on record?
**A.** inactive

**Q.** With `CC(C)Oc1ccc(Cc2cnc(=S)[nH]c2N)cc1` as the molecule, how does the Potency read?
**A.** inconclusive: 3.98 µM [activator, single point]

**Q.** With `COc1ccccc1N1CCN(c2ncnc3onc(-c4cccc(Cl)c4)c23)CC1` as the molecule, how does the Potency read?
**A.** inactive

**Q.** Which Potency does the source give for `Clc1ccc(Cn2c(/C=C/c3ccco3)nc3ccccc32)cc1` here?
**A.** inactive

**Q.** Which Potency does the source give for `COc1ccc(C(=O)Oc2cccnc2)cc1` here?
**A.** inactive

**Q.** With `O=C1C=C(c2ccccc2)OC2(CCCC2)O1` as the molecule, how does the Potency read?
**A.** inconclusive: 2.82 µM [activator, partial curve, poor fit]

**Q.** Which Potency does the source give for `Nc1nc(-c2ccc3c(c2)OCCO3)cs1` here?
**A.** active: 15.8 µM

**Q.** With `Cc1ccc(NC(=O)/C=C/c2ccc3c(c2)OCO3)nc1` as the molecule, how does the Potency read?
**A.** active: 2.82 µM

**Q.** For `CN(Cc1ccccc1)C(=O)c1cc(-c2ccc(Br)cc2)on1`, which Potency is on record?
**A.** inconclusive: 15.8 µM [activator, single point]

**Q.** For `CCc1ccc(NCc2cccn2-c2nnc(N3CCCCCC3)s2)cc1`, which Potency is on record?
**A.** inconclusive: 35.5 µM [activator, single point]

**Q.** With `CCCCNC(=O)C1CC(c2cccc([N+](=O)[O-])c2)=NO1` (centres undefined) as the molecule, how does the Potency read?
**A.** inconclusive: 22.4 µM [activator, single point]

**Q.** Which Potency does the source give for `CCC(=O)Nc1ccc(NC(=O)c2cccc(OC)c2)nc1` here?
**A.** active: 11.2 µM

**Q.** For `COc1ccc(C(=O)N(Cc2ccco2)Cc2ccco2)cc1`, which Potency is on record?
**A.** inactive

**Q.** Which Potency does the source give for `O=C(Nc1cccc(-c2cn3c(n2)SCC3)c1)c1ccc2ccccc2n1` here?
**A.** active: 12.6 µM

**Q.** For `CN1CCC(OC(=O)COc2ccc(F)cc2)CC1`, which Potency is on record?
**A.** inactive

**Q.** For `COc1cc(C(=O)Nc2cc(-c3nc4cc(C)ccc4o3)ccc2C)cc(OC)c1OC`, which Potency is on record?
**A.** inconclusive: 12.6 µM [activator, partial curve]

**Q.** With `Cc1ccc(-n2c(C)cc(/C=N/NC(=O)c3ccc(CN4CCOCC4)cc3)c2C)cc1` as the molecule, how does the Potency read?
**A.** inactive

**Q.** With `CCCN1Cc2cccc(C(=O)Nc3cc(C)cc(C)c3)c2C1=O` as the molecule, how does the Potency read?
**A.** inactive

**Q.** With `Cc1cc(-c2csc(N)n2)c(C)n1Cc1ccco1` as the molecule, how does the Potency read?
**A.** inconclusive: 20 µM [activator, single point]

**Q.** With `Nc1nccc(-c2cccs2)n1` as the molecule, how does the Potency read?
**A.** inactive

**Q.** Which Potency does the source give for `CCN(CC)CCCNC(=O)c1cc(-c2ccc(Cl)cc2)on1` here?
**A.** inactive

**Q.** For `C#CCSc1nnc(-c2sc3ccccc3c2Cl)o1`, which Potency is on record?
**A.** inconclusive: 22.4 µM [activator, partial curve, poor fit]

**Q.** Which Potency does the source give for `Cc1ccc(-c2nc3nc4ccccc4nc3n2Cc2ccco2)cc1` here?
**A.** active: 8.91 µM

**Q.** Which Potency does the source give for `CCn1cc(Br)c(C(=O)Nc2ccc(Cl)c(Cl)c2)n1` here?
**A.** inconclusive: 15.8 µM [activator, single point]

**Q.** With `Cc1ccc(Nc2c(N)c(=O)oc3ccccc23)cc1` as the molecule, how does the Potency read?
**A.** inconclusive: 5.62 µM [activator, single point]

**Q.** With `CC1CCN(C(=O)C2CCN(CCCc3ccccc3)CC2)CC1` as the molecule, how does the Potency read?
**A.** inactive

**Q.** Which Potency does the source give for `Brc1ccc(-c2csc(-c3ccncc3)n2)cc1` here?
**A.** inconclusive: 35.5 µM [activator, single point]

**Q.** Which Potency does the source give for `CCC(=O)N1CCc2cc(S(=O)(=O)CCC(=O)N3CCN(c4cc(C)ccc4C)CC3)ccc21` here?
**A.** inactive

**Q.** Which Potency does the source give for `C/C(=C\c1ccccc1)C(=O)NCc1ccco1` here?
**A.** inactive

**Q.** For `COc1ccc(C)cc1Nc1nc2cc(Cl)c(Cl)cc2nc1-n1nc(C)cc1C`, which Potency is on record?
**A.** inactive

**Q.** With `COC(=O)CCC(=O)Nc1ccc(NC(=O)CCC(=O)OC)cc1` as the molecule, how does the Potency read?
**A.** inactive

**Q.** With `Cc1ccc(C)c(CN2C(=O)c3ccccc3S(=O)(=O)c3ccc(C(=O)N4CCN(c5ccccn5)CC4)cc32)c1` as the molecule, how does the Potency read?
**A.** inconclusive: 35.5 µM [activator, single point]

**Q.** Which Potency does the source give for `C/C(=N/OCC(=O)NCCCCCCNC(=O)CO/N=C(/C)c1cccs1)c1cccs1` here?
**A.** inconclusive: 5.62 µM [activator, single point]

**Q.** For `CCCCOC(=O)Nc1nnc(CC)s1`, which Potency is on record?
**A.** inactive
